Experimental data reported in the RNAGym collection of RNA variant scans (doi:10.7554/elife.90254).
The source gives no read counts; variants with many changes may rest on few reads.

B1: LINE1-mini (parent)
chain: GGCAGAGCUCAACACAGCGUGGCAAAGUGGCUGUGGCUAGACUGCC

Variants of: B1
Assay: self-cleavage, relative activity (ratio to wild type); higher = more cleavage; in vitro, sequencing; the parent is a self-cleaving ribozyme
For GGCAGGGCUCUACACAACGUGGGAAAGUGGCUGUGGCUAGACUGCC [A6G A11U G17A C23G], the self-cleavage was 0. With GGCAGGGCUCAACACAGCGUGGCCAAGUGGCUGUGGCUAGACUGCA [A6G A24C C46A] the self-cleavage was 0.19. With GGCAGGGCUCAACACGGCGUGGCAAAGUGGCUGUGGCUAGACUGCG [A6G A16G C46G] the self-cleavage was 0.03. GGCAGGGCUAAACACAGCGUGGCAAAGUGGCUGUGUCUAGAUUGCC [A6G C10A G36U C42U] showed a self-cleavage of 0.01. Variant GGCAGGGCUCAACUCAGCGUGGCGAAGUGGCUGUGGCUAGACUGCC [A6G A14U A24G] has a self-cleavage of 0.02. For GGCAGGGCUCAACACAGCGUGGCAAGGUGGCUGUGGCUAGCCUGCA [A6G A26G A41C C46A], the self-cleavage was 0.12. GGCAGGGAUCAACACAGUGUGGCAAAGUGGCUGUGGCUAGACUGCC [A6G C8A C18U] showed a self-cleavage of 0.29. For GGCAGGGCUCAACACUGCGUGGCAAAGUGGCUGUGGCGAGACUGCC [A6G A16U U38G], the self-cleavage was 0.01. Work on GGCAGGGCUCAAGACAGCGUGGCAAAGUAGCUGUGGCUAGACUGCC [A6G C13G G29A] yielded a self-cleavage of 0.07. For GGCAGGACUCAACACAGUGUGCCAAAGUGGCUGUGGCUAGACUGCC [A6G G7A C18U G22C], the self-cleavage was 0.07. Variant GGCAGGGCUCAACGCGGCUAGGCAAAGUGGCUGUGGCUAGACCGCC [A6G A14G A16G G19U U20A U43C] has a self-cleavage of 0.02. GGCAGGGCUCAACACAGCGUGGCAAGGUGGCUGUGUCUCGACUGCC [A6G A26G G36U A39C] showed a self-cleavage of 0.02. GGCAGGGCUCAGCACCGCGUGGCAAAGUGGCUGUGGCUAGAUUGCC [A6G A12G A16C C42U] showed a self-cleavage of 0.01. With GGCAGGGCUAAACACAGCGUGGCAAAGUGGCUGUGGCUAAGCUUCC [A6G C10A G40A A41G G44U] the self-cleavage was 0.02. GGCAGGGCUCAGCACAGCGUGGCCAAGUGGCUGUGUAUAGACUACC [A6G A12G A24C G36U C37A G44A] gave a self-cleavage of 0.02. Variant GGCAGGGCUCAAGACAGCGUCCCAAAGUGGCUGUGUCUAGACUGCC [A6G C13G G21C G22C G36U] has a self-cleavage of 0.04. For GGCAGCGCUCAACACAGCGUGGCAAAGUGGCUGAGGAAAGUCUGCU [A6C U34A C37A U38A A41U C46U], the self-cleavage was 0.02. In the case of GGCAGGGCUUAACACAGCGUGGCAAAGUGGCUGUGGCUAGACUGAC [A6G C10U C45A], the self-cleavage is reported as 0.04. Variant GGCAGGGCUCAAAAUAGCGUGGCAAAGUGGUUGAGGCUAGACUGCC [A6G C13A C15U C31U U34A] has a self-cleavage of 0.11. GGCAGGCCUCAACACAGCAUGGCAAAGUGGCUAUGGCUAGACUGCC [A6G G7C G19A G33A] showed a self-cleavage of 0.12. Work on GGCAGCGCUCAACACAGCGUGGCAAAGUGGCUGGGGCUAGAAUGCC [A6C U34G C42A] yielded a self-cleavage of 0.03. For GGCAGGGCUCAACACAGCGUGGCAAGGUGGCUGUGGCUCGACUGCC [A6G A26G A39C], the self-cleavage was 0.03. In the case of GGCAGGGCUAAACACAGCUUGGCUAAGUGGCUGUGGCUAGACUGCC [A6G C10A G19U A24U], the self-cleavage is reported as 0.01. For GGCAGGGCUUAACACAGCUUGGCAAAGUGGCUGUGGCUAGACUGCC [A6G C10U G19U], the self-cleavage was 0.01. With GGCAGGGCUCAAAAGAGCGUGGAACAGUGGUUGUGGCUAGGCUGCC [A6G C13A C15G C23A A25C C31U A41G] the self-cleavage was 0.02. Work on GGCAGGGCUCAACACAGCGUGGCAAAGUGGGUGUGGCUAUACUGCC [A6G C31G G40U] yielded a self-cleavage of 0. With GGCAGGGCUCAACACAGGGUGGCAAAGCGGCUGUGGAUAGACUGCC [A6G C18G U28C C37A] the self-cleavage was 0.05. With GGCAGGGCUCAACAAAGCGUGCCAAAUUGGCUGGGGCUAGACUGCG [A6G C15A G22C G27U U34G C46G] the self-cleavage was 0.03. GGCAGGGCUCAACGCAGCGUGGCAAAGUGGUUGUGGCUAGACUGCC [A6G A14G C31U] showed a self-cleavage of 0.07. With GGCAGGGAUCAACACAGCGUGGCAAAGUGGCUGUGGCUAGACAGCC [A6G C8A U43A] the self-cleavage was 0.39. GGCAGCGCUCAACACAGCGUGGCAAAGUGGCUGCGGUUAGACUGCC [A6C U34C C37U] showed a self-cleavage of 0.08. In the case of GGCAGGGCUCAAAACAGCAUGGCAAAGUGGCUGUGGCUAGACAGUC [A6G C13A G19A U43A C45U], the self-cleavage is reported as 0.21. With GGCAGCGCUCAACACAGCGUGGCAAAGUGGCUGCGGCUAGGUUGCC [A6C U34C A41G C42U] the self-cleavage was 0.11. GGCAGGGAUCAACACAGCGUGGCAAAGUGGCUGUAGCUAGACUGCC [A6G C8A G35A] showed a self-cleavage of 0.08. GGCAGGGCUUAACUCAGCGUGUCAAAGUGGCUGUGGCUAGACUGCC [A6G C10U A14U G22U] gave a self-cleavage of 0.11. GGCAGGGCUCAACACAGCGUGGCAAAGUGGAUGUGGGUAGACUCCC [A6G C31A C37G G44C] gave a self-cleavage of 0.03. Variant GGCAGCGCUCAACACAGCGUGGCAAAGAGGCUGUGGCUAAACUGCC [A6C U28A G40A] has a self-cleavage of 0.13. Work on GGCAGGGCUCAACACCGCGUGGCAAAGUGGCUGUGGCUAGACUCCC [A6G A16C G44C] yielded a self-cleavage of 0.01. With GGCAGGGCUCAACACAGCGUGGCCAAGAGGCUGUGGCUAGACUGCC [A6G A24C U28A] the self-cleavage was 0.1. For GGCAGGGCUCGACACAGCGUGGUAAAGUGGCUGUGGCUAGACUGCC [A6G A11G C23U], the self-cleavage was 0.01. GGCAGGGCUCAACACCGCGUGACAAAGUGGAUGUGGCUCGACUGAC [A6G A16C G22A C31A A39C C45A] showed a self-cleavage of 0.01. With GGCAGGGCUCAACACAGUGUGUAAAAGUGGCUGUGGCUAGACUGCC [A6G C18U G22U C23A] the self-cleavage was 0.56. Work on GGCAGGGCUCAUCACAGUGUGGCAAAGUGGCUGUGGCUAGACUGUC [A6G A12U C18U C45U] yielded a self-cleavage of 0.03. Variant GGCAGGGCUCAACAGAGCGUGGCAAAGUGGCUGUGACUAGACAGCC [A6G C15G G36A U43A] has a self-cleavage of 0. GGCAGGGCUCAAUACAGCAUGGCAAAGUGGCUGUGGCUAGACUGCC [A6G C13U G19A] gave a self-cleavage of 0.08. For GGCAGGGCUCAACACAGCGUGGCUAAGUGGCUGUGGCUAGUCUGCU [A6G A24U A41U C46U], the self-cleavage was 0.1. Variant GGCAGGGCUAAACACAGCGUUGCAAAGUGGCUGUGGCUAGACUGCC [A6G C10A G21U] has a self-cleavage of 0.02. GGCAGGGGUCAACACAGCGUGCCAAAGUGGCUGUGGCUACACUGCC [A6G C8G G22C G40C] showed a self-cleavage of 0.03. In the case of GGCAGGGCUCAACACAGCGUGGCAGAGUGGCUGUGGCUAGGCUGCC [A6G A25G A41G], the self-cleavage is reported as 0.1. With GGCAGGGCUCAAAACAGCGUGUGAAAGUGGCUGUGGCUAGACUUCC [A6G C13A G22U C23G G44U] the self-cleavage was 0.07. Variant GGCAGGGCUCAACAGAGCGUGGCAAAGUGGCGGUGGCUCGACUGCC [A6G C15G U32G A39C] has a self-cleavage of 0.02. Variant GGCAGGGCUGAACACAGCGUGGCAAACUGGCUGUUGCUAGACCGCC [A6G C10G G27C G35U U43C] has a self-cleavage of 0.01. GGCAGGGCUCAUCACAGCGUGGCAAAGUGGCUGUGGCUAGGCUGCC [A6G A12U A41G] showed a self-cleavage of 0.05. In the case of GGCAGGGCUCAACAAAGCGUCGCAAUGUGGCUGGGGCUCGACUGCC [A6G C15A G21C A26U U34G A39C], the self-cleavage is reported as 0.02. GGCAGGGCUGAACACAGCGUGGCAAAGUGGCUGUGGCUAGACUGCG [A6G C10G C46G] gave a self-cleavage of 0.01. In the case of GGCAGCGCUCAACACAGCGUGGCAAAGAGGCUGUGGCCAGACUGCC [A6C U28A U38C], the self-cleavage is reported as 0.12.
